TGI and GI50 data for 33 compounds are collected here from PubChem BioAssay (NCI).

The TGI is the concentration at which net growth stops. What is called GI50 is the concentration at which growth is held to half of that of the control.

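Where inhibition never reached the appropriate level, the endpoint shown equals the highest concentration tested. Otherwise, values were interpolated linearly from a five-concentration, 48-hour dose response in 96-well plates. The concentration for 50% growth inhibition is given as GI50. TGI is the concentration that stops growth completely.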

This assay deals with NCI-H322M lung. Nature of the assay: DTP human tumour cell line panel, 48 h.
Compound `C[C@H](c1ccccc1)n1c(N)c(-c2nc3ccccc3s2)c2ccc([N+](=O)[O-])cc2c1=O` gave a TGI of 22.5 µM. Take `COc1cccc2c(SCC(=O)Nc3ccccc3-c3ccccc3NC(=O)CSc3c4ccccc4nc4c(OC)cccc34)c3ccccc3nc12`: the TGI was more than 100 µM. Same read-out and setting: for `Cc1ccc(C2[C@H]3C(=O)N(c4ccc(Cc5ccc(N6C(=O)[C@@H]7ON(c8ccccc8)C(c8ccc(C)cc8)[C@@H]7C6=O)cc5)cc4)C(=O)[C@H]3ON2c2ccccc2)cc1` (stereo not given in full) the value was more than 100 µM; for `CSCC(CO)NC(=O)/C=C/c1c(C)[nH]c(=O)[nH]c1=O` (stereo not given), 866 µM. Still for that read-out and setting: under `Cn1c2c(c3ccccc3c1=O)C(=O)c1ccccc1-2` stands more than 100 µM. The same measure, in the same setting: for `O=C(/C=C/c1ccccc1)c1cc(C(=O)/C=C/c2ccccc2)c(O)cc1O` the value was more than 100 µM; for `CC(=O)NC1CC(C(C)(C)NC(C)=O)CC=C1C` (stereo not given), more than 100 µM. Turning to `COc1ccc(/C=C2\CCC(C)c3c2nc(N)c(C#N)c3-c2ccc(OC)c(OC)c2)cc1OC` (stereo not given), the TGI was more than 100 µM. On to `CC1(C)OC[C@H](COCOP2(=O)Oc3ccc4ccccc4c3-c3c(ccc4ccccc34)O2)O1`, for which the TGI stood at 34 µM. In turn, `CC(NP(=O)(c1ccccc1)c1ccccc1)c1ccccc1` (stereo not given) yielded a TGI of more than 100 µM. Regarding `OC(CN1CCCC2CCCCC21)c1cc2ccccc2c2ccccc12` (stereo not given), the GI50 was 3.56 µM and the TGI is 14.6 µM.

Take `NC(=O)C(=O)C1C(=O)N(c2ccccc2)N=C1N` (stereo not given): the concentration for total growth inhibition (TGI) was more than 100 µM. Same read-out and setting: under `COc1ccc2nc3n(c2c1)C(c1c(F)cccc1F)SC3` (stereo not given) stands more than 100 µM. Take `O=C1NC2C3CC(OCc4ccccc4)(OCc4ccccc4)C2OC3O1` (stereo not given): the TGI was more than 50 µM. On the same count and under the same terms, for `NC(Cc1cccnn1)C(=O)O` (stereo not given) the value was more than 100 µM. The same measure, in the same setting: under `O=NN1CCN=C1c1ccc([N+](=O)[O-])cc1` stands more than 100 µM. In the case of `O=C(NCc1ccco1)C1CCN(S(=O)(=O)c2ccc(Cl)cc2)CC1`, the GI50 is more than 100 µM and the total growth inhibition concentration (TGI) was more than 100 µM. `CCCCCCCCCC(=O)NC(CCC(=O)N(CCNC(=O)c1nc(-c2ccccc2)oc1-c1ccccc1)Cc1ccccc1)C(=O)O` (stereo not given) showed a concentration for total growth inhibition (TGI) of 34 µM. For the compound `Cc1nc2c(O)c3c(c(O)c2nc1C)C1C=CC3CC1`, the TGI was more than 100 µM. The compound `CN(C)C(=S)/N=c1\ssc(=S)n1Cc1ccco1` yielded a concentration for total growth inhibition (TGI) of more than 100 µM.

In turn, `CCCS(=O)c1nc(COC(=O)NC)c(COC(=O)NC)n1C` (stereo not given) yielded a concentration for total growth inhibition (TGI) of more than 100 µM. The same measure, in the same setting: under `C=C1C2CC3CCC2C(OC(=O)c2ccccc2C(=O)O)C13` (stereo not given) stands more than 100 µM. With `CC1=CC(C)(C)Nc2ccc(Cc3ccc4c(c3)C(C)=CC(C)(C)N4)cc21`, the GI50 is 24.4 µM and the TGI was more than 100 µM. In the case of `c1cc(C2CCCCC2)ccc1-c1cnc2nonc2n1`, the GI50 was 2.39 µM and the TGI stood at 5.87 µM. Regarding `C[C@]12Cc3conc3C(O)=C1CC[C@@H]1C2CC[C@@]2(C)C1CC[C@]2(C)O` (stereo not given in full), the TGI is more than 100 µM. `CN(CCCN1C(=O)c2cccc3cc([N+](=O)[O-])cc(c23)C1=O)CCN(C)CCCN1C(=O)c2cccc3cc([N+](=O)[O-])cc(c23)C1=O` showed a TGI of more than 39.3 µM.

Compound `CCO[C@@]12CCC3CC4CC[C@@](OCC)(O1)C4C32` (stereo not given in full) came in with a TGI of more than 100 µM. `CSc1nnc(-c2cc3c([nH]c4ccccc43)c(-c3cccc(O)c3)n2)n1-c1ccc(C)cc1`: the GI50 is 7.09 µM and the TGI was more than 100 µM. `O=C1N/C(=N\N=C\c2ccccc2)C2(CCCCC2)O1`: the total growth inhibition concentration (TGI) is more than 100 µM. With `CCC[CH2][Sn]([CH2]CCC)([O]C(=O)c1cc(F)ccc1F)[O]C(=O)c1cc(F)ccc1F`, the GI50 was 1.79 µM and the total growth inhibition concentration (TGI) came to 3.29 µM. As for `C[C@@H](NC(=O)Cn1c(Cl)nc2ccccc21)c1ccccc1`, the concentration for total growth inhibition (TGI) is more than 100 µM. For the compound `C(=C\c1ccncc1)/c1ccncc1`, the GI50 was more than 100 µM and the total growth inhibition concentration (TGI) is more than 100 µM.

`Cc1ccc(Nc2nc(=O)c3c([nH]c4ccccc43)s2)cc1` gave a TGI of 39.7 µM.
